Experimental data published in PubChem BioAssay AID493208 (National Center for Advancing Translational Sciences (NCATS), 2011).
The campaign covered roughly 44,000 compounds. About 340 (0.77%) were called active. About 5% were inconclusive and are not listed. Calls follow the shape of the dose curve; as a rule, active = well fitted inhibition curve with a large enough effect; inconclusive = small, poorly fitted or top-dose-only effect; inactive = flat fitted curve, though single readings scatter. Some of the results follow.

Test: Acumen qHTS Assay for Inhibitors of the mTORC1 Signaling Pathway in MEF (Tsc2-/-, p53-/-) Cells: Sytravon; also: nearly all actives have a fitted effect of over 50% in size;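 as to activity change, negative = inhibition: plate controls were DMSO for no effect and rapamycin for full effect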
Settings: phospho-rpS6 immunofluorescence/PI, 24 h; series mostly up to 38.3 µM; activity change, negative = inhibition: at the top concentration
Procedure, shortened: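 Read-out: phospho-S6 Alexa-488 intensity over PI intensity per well, scored as % active cells using thresholds from rapamycin (7.5 nM) and DMSO controls. Tsc2-/-, p53-/- MEFs exposed to compound for 24 h; PI cell count recorded as viability.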
Potency is read from the fitted curve at half-maximal effect.

Activity change, negative = inhibition, inactive:
O=C(NCCc1ccccc1)C1CCC(CNS(=O)(=O)c2ccc(Cl)cc2)CC1 (stereo not given) -1.67%, Cc1ccc(C)c(N2CCN(C(=O)NCc3noc4ccc(C)cc34)CC2)c1 -9.74%, CCOC(=O)c1cccc(NC(=O)C2Cc3ccccc3N2C(=O)c2ccccc2)c1 (stereo not given) 0%, CCOc1ccc(C(=O)NC2CC(=O)N(c3ccc(C)cc3)C2)cc1OCC (stereo not given) 1.08%, Cc1ccc(Nc2nc3ccccc3c3nncn23)c(Cl)c1 -1.75%, Cc1ccc(-c2nc(NC(=O)CSc3nc(C)nc4sc5c(c34)CCCC5)ns2)cc1 2.66%, CC1CCN(S(=O)(=O)c2ccc3c(ccn3CCC(=O)NCc3ccccc3F)c2)CC1 -10.7%, Cc1cccc(-n2ncc3c(Nc4ccc(C)c(Cl)c4)ncnc32)c1 -9.54%, COc1ccc(NC(=O)c2c(-c3ccccc3)c(-c3ccccc3)nn(C)c2=O)cc1OC -1.7%, Cc1sc2c(c1C)c(=O)n(Cc1ccccc1)c(=O)n2Cc1ccc(F)cc1 -1.11%, Cc1ccccc1CNC(=O)CN1C(=O)C2CCCCN2c2ccc(C(=O)N3CCCC3)cc21 (stereo not given) -1%, Cc1ccccc1NC(=O)CCS(=O)(=O)c1cc(Br)cc2c1N(C(=O)C1CC1)CC2 -2.65%, CCc1nn(CC(=O)N2CCCCC2)c(=O)c2cc3sc(C)cc3n12 -5.91%, Cc1ccc(C)c(Cn2c(=O)n(C(C)C)c(=O)c3oc4ccccc4c32)c1 -0.811%, O=C(Nc1ccc2c(c1)N(C1CCCC1)C(=O)c1ccccc1S2)c1ccccc1F -4.36%, COc1ccc(-c2cn3cccnc3n2)cc1NC(=O)Nc1ccc(Cl)cc1 -5.66%, Cc1ccc(C(=O)c2oc3ccccc3c2NC(=O)COc2ccc(C(C)C)cc2)cc1 1.98%, O=C(Nc1ccc(S(=O)(=O)Nc2ncccn2)cc1)c1cc(=O)c2ccccc2o1 2.97%, CCOc1ccc(NC(=O)c2ccc3c(c2)CCN3S(=O)(=O)CC)cc1 -0.231%, O=C(CC1C(=O)N(c2ccccc2)C(=O)N1Cc1ccc(F)cc1)Nc1cccc(F)c1 (stereo not given) -3.18%, COc1ccc(-c2cc(-c3ccccc3)nc3c2COc2ccc(F)cc2-3)cc1 -2.62%, CCN(CC)C(=O)Cn1c(=O)cc(C)c2c(C)nn(-c3ccc(C)cc3)c21 1.96%, CC(C)c1nn2c(=O)cc(COC(=O)c3ccc(NC(=O)C4CCCCC4)cc3)nc2s1 -19.6%, Cc1ccc(CSc2ncc(Cl)c(C(=O)NCc3ccccc3)n2)cc1 -4.36%, COc1ccc2[nH]c3c(c2c1)CCN(C(=O)c1cccc(Cl)c1)C3c1ccc(F)cc1 (stereo not given) 0.0579%, Cc1ccc(S(=O)(=O)N2CCCc3cc(NS(=O)(=O)c4cc(C)ccc4C)ccc32)cc1 13.9%, Cc1nc2sccn2c(=O)c1S(=O)(=O)Nc1cc(Cl)ccc1O -6.44%, CCOC(=O)c1cc(-c2ccc(F)cc2)n(CC(=O)NC2CCCCCC2)c1C 0.591%, COc1ccc(NC(=O)c2c(NC(=O)COc3ccccc3)sc3c2CCC(C(C)(C)C)C3)cc1 (stereo not given) 4.37%, Cc1ccc(CN(Cc2ccco2)C(=O)c2ccc(OCC(C)C)cc2)cc1 -7.6%, Cc1ccc(C)c(N2CCN(C(=O)c3cc4c(=O)n(Cc5ccccc5)ccc4nc3C)CC2)c1 -9.68%, Cc1ccc2c(c1)N(C(=O)N1CCC(C(=O)NCCc3ccc(Cl)cc3)CC1)CC(C)O2 (stereo not given) 6.27%, Cc1ccc(-n2nc(C)c3c(C)c(CCC(=O)NCc4ccccc4Cl)c(C)nc32)cc1C 0.515%, CCOc1cccc2c1N[C@@H](c1ccc(C(=O)O)cc1)[C@H]1CC=C[C@@H]21 0.222%, Cc1cccc(Cn2cccc2CNS(=O)(=O)c2ccccc2F)c1 -1.12%, CCc1ccc(CNC(=O)Cn2nc(C)n3c(cc4cc(C)ccc43)c2=O)cc1 -1.27%, CCc1ccc(NC(=O)CN2C(=O)C(c3ccc(C)cc3)=NC23CCCCC3)cc1 -1.71%, COc1ccc(NC(=O)C(Cc2ccccc2)NS(=O)(=O)c2ccc3c(c2)CCC(=O)N3)c(OC)c1 (stereo not given) -4.42%, CCCCOc1ccc(C2=NC(c3ccncc3)=Nc3ccc(OCC)cc3N2)cc1 -3.66%, CCOc1ccccc1CNC(=O)C1CCN(c2nnc(-n3c(C)ccc3C)s2)CC1 -7.53%, O=C(Cn1c(=O)n(CC2CCC(C(=O)NCCc3ccccc3)CC2)c(=O)c2ccccc21)Nc1ccccc1 (stereo not given) -19.7%, COc1ccc2sc(N(Cc3cccnc3)C(=O)C3CCCCC3)nc2c1 0.0636%, Cc1nn(-c2ccc(F)cc2)c(-n2cccc2)c1C(=O)NCCc1ccc(Cl)cc1 -8.29%, Cc1cc(C)n2nc(CNS(=O)(=O)c3ccc(C)c(C)c3)nc2n1 -4.9%, CC(C)OCCCn1c(SCC(=O)c2ccccc2)nc2c(sc3ccccc32)c1=O -7.6%, O=C(C1CCN(S(=O)(=O)c2cccc3nonc23)CC1)N1CCN(c2cccc(Cl)c2)CC1 -11.2%, COc1ccc(NC(=O)CSc2nc3nc(C)c(Cc4ccccc4)c(C)n3n2)cc1OC -0.642%, Cc1ccc(Cn2c(=O)c3ccccc3n3c(-c4cccc(O)c4)nnc23)cc1 4.17%, CCN(CC)CCOC(=O)c1ccc(NC(=O)Cn2ncc3c2-c2cc(C)ccc2OC3)cc1 -2.17%, COc1cccc(CNC(=O)c2ccc(-c3nc(COc4ccccc4)c(C)o3)cc2)c1 -3.94%, Cc1ccc(CCNC(=O)c2cc3c(s2)-c2c(C)cccc2OC3)cc1 -7.09%, Cc1ccc2nc(COc3ccccc3NC(=O)C(C)(C)C)cc(=O)n2c1 6.73%, CCOc1ccc(C2CC(c3c(O)n(C4CCCCC4)c(=O)[nH]c3=O)=Nc3ccccc3S2)cc1 (stereo not given) -2.26%, O=C(Cc1ccc(F)cc1)NCc1ccc2c(c1)CCN2C(=O)c1ccc(F)cc1 -25.6%, Cc1ccc(NS(=O)(=O)c2ccc(-n3cccn3)cc2)cc1Cl -2.22%, O=C(CSc1nnc2ccc3ccccc3n12)Nc1ccccc1Cl -0.107%, CCOC(=O)N1CCc2c(sc3c2c(=O)n(-c2ccccc2C(F)(F)F)c(=O)n3Cc2ccccc2C)C1 1.89%, COC(=O)c1cc2oc3ccccc3c2n1CC(=O)Nc1ccc(Cl)cc1F 0.0588%, COc1cccc2c1cc1c(=O)n(CC(=O)NCc3ccc(C)o3)nc(C)n12 -17.8%

Potency, active:
Cc1cccc(NS(=O)(=O)c2ccc3[nH]c4c(c3c2)CCCCCC4)c1 13.1 µM
